Values of other authors as cited in publication PMC2580802 (Cell, 2008).

System: S. pneumoniae
Conditions: ref Irschik et al., 1985; M. Talaue, N. Connell, J.M. and R.H.E., unpublished; cited from earlier work

In the case of `C/C=C/C/C=C(\C)C(O)CC/C(C)=C/C=C(\C)C(=O)c1c(O)cc([C@H](C)CC/C=C/NC(=O)OC)oc1=O` (stereo partly shown) [Cor, corallopyronin A], the MIC is given as ≤ 12.5 µg/mL.
